In all, about 310,000 compounds went through this assay and about 2,200 (0.71%) showed an effect of 50% or more. Effects have a minus sign here. This is one part of the list.
Biological target: human ether-à-go-go-related gene (hERG) potassium channel (human, UniProt Q12809)
Experiment: primary screen, population patch clamp on CHO cells stably expressing hERG

Sequence of human ether-à-go-go-related gene (hERG) potassium channel (Q12809 whole entry, looked up): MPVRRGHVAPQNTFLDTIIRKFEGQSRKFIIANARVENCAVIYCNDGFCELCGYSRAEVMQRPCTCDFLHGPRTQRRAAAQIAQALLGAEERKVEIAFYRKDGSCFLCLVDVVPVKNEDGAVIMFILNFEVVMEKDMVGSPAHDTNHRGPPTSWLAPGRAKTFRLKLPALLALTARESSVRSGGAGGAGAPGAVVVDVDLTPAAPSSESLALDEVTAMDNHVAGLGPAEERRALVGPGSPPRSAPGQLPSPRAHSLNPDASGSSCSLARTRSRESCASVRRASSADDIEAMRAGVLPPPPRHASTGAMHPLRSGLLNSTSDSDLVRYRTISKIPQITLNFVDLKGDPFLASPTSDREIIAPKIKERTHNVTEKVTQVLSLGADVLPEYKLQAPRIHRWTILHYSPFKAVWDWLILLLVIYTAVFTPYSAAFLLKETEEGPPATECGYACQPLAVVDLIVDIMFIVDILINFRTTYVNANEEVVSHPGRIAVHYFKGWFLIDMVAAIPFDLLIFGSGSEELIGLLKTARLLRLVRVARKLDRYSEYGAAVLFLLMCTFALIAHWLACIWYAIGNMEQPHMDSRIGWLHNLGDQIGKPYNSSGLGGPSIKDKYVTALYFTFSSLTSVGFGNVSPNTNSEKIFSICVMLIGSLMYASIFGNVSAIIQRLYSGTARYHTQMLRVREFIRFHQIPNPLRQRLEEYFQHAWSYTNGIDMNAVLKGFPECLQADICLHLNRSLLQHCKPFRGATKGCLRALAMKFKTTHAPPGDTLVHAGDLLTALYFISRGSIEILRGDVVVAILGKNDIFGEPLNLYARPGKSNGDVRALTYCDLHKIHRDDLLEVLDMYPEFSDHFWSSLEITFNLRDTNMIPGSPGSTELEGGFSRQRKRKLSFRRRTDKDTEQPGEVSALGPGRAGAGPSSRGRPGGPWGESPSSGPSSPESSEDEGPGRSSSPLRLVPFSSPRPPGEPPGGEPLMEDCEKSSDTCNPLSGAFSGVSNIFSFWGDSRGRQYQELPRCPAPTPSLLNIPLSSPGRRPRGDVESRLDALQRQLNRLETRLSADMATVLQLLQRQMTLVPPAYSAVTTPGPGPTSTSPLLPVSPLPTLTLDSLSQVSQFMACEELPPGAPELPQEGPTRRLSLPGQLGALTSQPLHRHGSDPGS

SMILES | hERG current change (%, negative = inhibition) at 1uM [%]
COc1ccc(CNS(=O)(=O)c2cc3c4c(c2)C(C)C(=O)N4CCC3)cc1 (stereo not shown) | 6.59
CC(=O)NNc1ccc(C(F)(F)F)cc1[N+](=O)[O-] | 15.6
CCCc1ccc(OCC(=O)NNC(=S)NC(=O)c2ccco2)cc1 | 3.15
COc1ccccc1-c1nc(S(=O)(=O)c2ccc(Cl)cc2)c(N(C)C)o1 | 14.9
COC(=O)c1ccc(C2C(Oc3ccccc3C)C(=O)N2CCc2ccc(OC)c(OC)c2)cc1 (stereo not shown) | 8.46
O=C(NCCN1CCOCC1)c1cccc(S(=O)(=O)Nc2ccc(Br)cc2)c1 | 4.89
Cc1sc2ncnc(N(C)Cc3ccco3)c2c1C | 8.66
O=C(COc1ccccc1[N+](=O)[O-])N/N=C/c1ccccn1 | 7.25
O=C(/C=C/c1ccc2c(c1)OCO2)Nc1nc(-c2ccccc2)cs1 | 8.24
Cc1cccc(C(=O)NC2CCN(CC(=O)Nc3ccc4c(c3)OCO4)CC2)c1 | -28.7
Cn1cc(/C=C(\NC(=O)c2ccccc2Cl)C(=O)NCCN2CCOCC2)c2ccccc21 | 15.6
Cc1cnc[nH]1 | 0.776
COc1ccc(O)c(CN2CCN(CCCc3ccccc3)C(CCO)C2)c1 (stereo not shown) | -21.7
CCCC(=O)O/N=C(\c1ccccc1)c1ccncc1 | 13.4
Cc1ccccc1CCNC(=O)Cn1ccc2cc(S(=O)(=O)N3CCCC3)ccc21 | 13.2
CC(=O)N1CCN(CCN(CC2C(C)C=C(C)CC2C)C(C)=O)CC1 (stereo not shown) | 1.37
CC(=O)NC1=NN(C(C)=O)C(C)(c2ccccn2)S1 (stereo not shown) | 16.1
CC(C)(C)c1cc(C(=O)N/N=C/c2ccc(-c3ccccc3[N+](=O)[O-])o2)n[nH]1 | 8.04
O=C(COC(=O)c1cccc(O)c1)Nc1nnc(-c2ccccc2)o1 | 18.1
C[C@H](CCC(=O)NCC(=O)O)[C@H]1CC[C@H]2[C@@H]3[C@H](O)C[C@@H]4C[C@H](O)CC[C@]4(C)[C@H]3C[C@H](O)[C@]12C.O | 11.8
O=C(CCC1CCCC1)Nc1ccccc1-c1ccccc1 | 8.84
CC1CCC(C(=O)NC(C(=O)N2CCC3(CC2)OCCO3)C(C)C)CC1 (stereo not shown) | 0.523

SMILES | hERG current change (%, negative = inhibition) at 1uM [%]
COc1cccc(N(CC(=O)N2CCOCC2)S(C)(=O)=O)c1 | 20.9
Cc1ccc(C)c(N(CC(=O)NC2CCCC2)C(=O)c2cc3cc4cc(C)ccc4nc3s2)c1 | 7.39
Nc1c(C(=O)CSc2ccccn2)c(=O)[nH]c(=O)n1C1CC1 | 9.19
COc1ccc(/C=C/C(=O)O)cc1S(=O)(=O)N1CCc2ccccc21 | 6.26
Cc1cc(/C=N/NC(=O)c2ccncc2)c(C)n1-c1ccccc1 | 19.9
C/C(=N\NC(=O)C(O)c1ccccc1)c1ccc(Cl)cc1 (stereo not shown) | 20.7
Cc1nc2ccccc2c2c1CC(C)S2 (stereo not shown) | 11
O=C(Oc1coc(CSc2ncccn2)cc1=O)c1cccs1 | 9.21
CCOC(=O)c1cnc2cc(C)nn2c1-c1ccccc1 | 13
COc1ccc(N2CC(C(=O)N3CCC(c4nc5ccccc5[nH]4)CC3)CC2=O)cc1 (stereo not shown) | 4.23
CCN1CCN(c2cc(-c3ccccc3)nc3cc(-c4cccc(F)c4)nn23)CC1 | 0.799
NC(=O)c1ccc(SCC(=O)OCC(=O)N2CCCCC2)c([N+](=O)[O-])c1 | 10.2
O=C1CC(C(=O)N(CC2CCCO2)C(C(=O)NC2CCCCC2)c2ccncc2)CS1 (stereo not shown) | 1.09
COC(=O)c1c(C)oc2ccc(N(C(=O)Oc3ccccc3)S(=O)(=O)c3ccc(Cl)c([N+](=O)[O-])c3)cc12 | 6.89
O=C(NC1CCCC1)c1ccc(CS(=O)(=O)c2ccc(Br)cc2)o1 | -17
CCOCCOC(=O)C(C)Oc1ccc(Oc2nc(Cl)ccc2Cl)cc1 (stereo not shown) | 12.7
Cc1ncsc1C(=O)N1N=C2/C(=C/c3ccc(N4CCOCC4)cc3)CCCC2C1c1ccc(N2CCOCC2)cc1 (stereo not shown) | 6.41
CCCC(=O)Nc1nnc(C2CCCO2)s1 (stereo not shown) | 2.41
CCOCCCn1c(C)nc2c(c1=O)c1nc3ccccc3nc1n2-c1ccc2c(c1)OCCO2 | 11.4
COCCn1c(SCC(=O)Nc2ccc(F)cc2)nc2ccccc2c1=O | -9.52
COc1cc(NC(=O)CSc2nnc(C)s2)cc(OC)c1 | 17.9
O=C(Nc1ccc(Cl)cc1C(=O)c1ccccc1)c1ccc(Br)o1 | 10.8

SMILES | hERG current change (%, negative = inhibition) at 1uM [%]
COC(=O)CCC(=O)Nc1ccc(S(=O)(=O)N2CCc3ccccc32)cc1 | 14.8
Cc1cc(C)nc(/N=C(\NC(=O)C(C)(C)C)Nc2ccc(F)cc2)n1 | 10.8
Cc1c(Cl)cccc1NC(=S)NCc1cccn1C | 9.44
CC(Oc1ccc(Cl)cc1Cl)c1nc(-c2ccc(NC(=O)c3ccccn3)cc2)no1 (stereo not shown) | 14.6
Cn1nc(-c2ccc(C(=O)N3CCN(CCO)CC3)cc2)c2ccccc2c1=O | 2.73
CC(CCc1ccc(O)cc1)NCc1ccc(Br)cc1 (stereo not shown) | -66.8
COc1cc(NC(=O)c2cc3ccccc3o2)c(OC)cc1Cl | 15.6
COc1ccc(C2CC(C)(c3ccc(OC)cc3OC)Nc3ccccc3N2)c(OC)c1 (stereo not shown) | 2.56
CC(=NC(C)c1ccccc1)c1c(O)[nH]c(=O)[nH]c1=O (stereo not shown) | 5.75
O=C(O)c1nn(-c2cccc(Cl)c2)c(=O)cc1O | 4.27
C=CCNc1nc(NCc2ccccc2)c(C#N)c2c1CN(C)CC2 | -15.4
O=C(CN1CCc2[nH]c3ccccc3c2C1)N1CCCCC1 | 6.73
O=C(O)CCC(=O)NCc1c(Cl)cccc1Sc1ccc(Cl)cc1 | 8.17
CC(C)c1ccc(NC(=O)CSc2n[nH]c(=O)n2C2CC2)cc1 | 8.98
COc1ccc(CC(=O)NNC(=O)c2cccs2)cc1OC | 4.46
N#Cc1c(N(CCO)CCO)nc(N)c2c(N)nc3c(c12)CC(=O)N3CC1CCCO1 (stereo not shown) | 13.1
O=C(Nc1cccc(S(=O)(=O)N2CCOCC2)c1)c1ccc2ccccc2n1 | 5.96
COc1ccc(S(=O)(=O)N2CCN(C(=O)c3ccco3)CC2)cc1OC | 12.2
COc1cccc(C2OC(=O)c3ccccc3N2C(C)=O)c1OC(C)=O (stereo not shown) | 14.2
CCC(OC(=O)c1nsc(Cl)c1Cl)C(=O)NCc1ccco1 (stereo not shown) | 13.1
CCCn1c(N)c(N(CCOC)C(=O)c2ccc(F)cc2)c(=O)[nH]c1=O | 12.9
CCc1nnc(NC(=O)c2cc(S(=O)(=O)N3CCCCC3)ccc2C)s1 | 1.93

SMILES | hERG current change (%, negative = inhibition) at 1uM [%]
COc1cccc(/C=N/n2nnnc2N)c1O | 6.86
CCOC(=O)c1sc2nc(N3CCOCC3)c3c(c2c1N)CC(C)(C)N(C)C3 | 10.6
CN(C)S(=O)(=O)c1ccc2c(c1)nc(CCC(=O)NCCc1ccc(Cl)cc1)n2C | -16.4
Cc1cc(C)c(C)c(S(=O)(=O)N2C(=S)NC(=O)C2CC(C)C)c1C (stereo not shown) | 1.8
Cc1ccc(NC(=O)COc2ccc3c(c2)CCC3)nc1 | 7.51
Cc1nn(CC(=O)Nc2cccc(S(N)(=O)=O)c2)c(C)c1[N+](=O)[O-] | 16.1
CN(C)C(=O)C12CCC(C)(c3nc4ccccc4nc31)C2(C)C (stereo not shown) | 11.6
Cc1ncc(CO)c(/C=N/NC(=O)c2cc(Br)ccc2O)c1O | -7.37
Cl.O=C(NCCCN1CCOCC1)c1cn(-c2ccccc2)nc1-c1cccs1 | -1.21
Cc1nn(C)c(C)c1P(=S)(c1c(C)nn(C)c1C)N(C)C | 3.81
O=C(O)CCC(=O)Nc1ccccc1C(=O)Nc1ccccc1 | 16.4
CCCCNC(=O)c1cc2c(=O)n3cccc(C)c3nc2n(CCN2CCOCC2)c1=N | -92.4
CC1CN(C(=S)SCCN2Cc3ccccc3C2=O)CC(C)O1 (stereo not shown) | 8.87
COC(=O)CN(c1ccc(Cl)cc1C)S(C)(=O)=O | 20.4
CC(=O)c1cc(F)c(N2CCN(C(=O)C(C)(C)C)CC2)cc1C | 5.47
CS(=O)(=O)c1ccc(C(=O)OCc2nnc(-c3ccc(Cl)cc3)o2)cc1[N+](=O)[O-] | 13.7
O=C1c2ccccc2S(=O)(=O)N1CC(O)Cn1ccc2ccccc21 (stereo not shown) | 11.6
Cc1c(Cl)c([N+](=O)[O-])nn1CCCC(=O)Nc1cccnc1 | 12.8
O=C(N/N=C/c1cc(Br)c(Br)o1)c1cc2ccccc2o1 | 5.02
COCCCNc1nc2ccccc2nc1NS(=O)(=O)c1cccc(C)c1 | 16.7
N#C/C=C1/NC(=O)c2ccccc2S1 | 6.73
Cc1cc(C(=O)N2CCN(S(=O)(=O)c3ccccc3F)CC2)c(C)o1 | 11.8

From article PMC4336329 (PLoS ONE, 2015)
